This is an account of results in paper PMC6212790.

Some of the results follow. At the low end of the ranking the order means little.

The assay addresses T1, GST-Rok (full length) (UniProt O34857).
T1 sequence: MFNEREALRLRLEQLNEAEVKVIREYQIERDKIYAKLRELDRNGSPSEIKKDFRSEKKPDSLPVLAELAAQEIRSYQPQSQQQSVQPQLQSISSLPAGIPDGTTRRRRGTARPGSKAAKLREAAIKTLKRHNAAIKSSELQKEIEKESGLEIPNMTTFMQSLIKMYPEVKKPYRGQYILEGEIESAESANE
The assay can be described thus: protein binding microarray.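 Note: rank score from −0.5 (least bound) to 0.5 (best bound).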 The following applies: Rok is a gene silencer of Bacillus subtilis; high values mean tight binding; most listed sequences are background and not binding sites; double strand, one strand shown.
Turning to CAAAACCA, the binding signal was 0.0944 E-score. Under ACAGATGC stands -0.212 E-score. The sequence GATAACAA gave a binding signal of 0.234 E-score.

ATGTAACG: the binding signal stood at 0.161 E-score. For GAGTTATC, the binding signal is 0.119 E-score. On to ATTTAAAC, for which the binding signal turned out to be 0.0969 E-score. Next, CTATAACC: 0.156 E-score; CCAGCACA: -0.21 E-score; GAATGGGA: -0.15 E-score.

Consider ACAGATTA, for which the binding signal is 0.0403 E-score. Turning to AATACAAC, the binding signal came to 0.287 E-score. Next, ACAGCTCT: -0.118 E-score; ATAAAAGA: 0.0984 E-score. ATAACCAA returned a binding signal of 0.276 E-score. Under CAATGGAC stands -0.0589 E-score; under GGGTTTAA, -0.108 E-score. CTCTTCGC came in with a binding signal of 0.197 E-score. Next, AGACGTTA: 0.0403 E-score; AAGTTAAC: 0.232 E-score.

CGCAAAGA: the binding signal is -0.142 E-score. Regarding AGAGGGCG, the binding signal was -0.286 E-score. Regarding CGGTGGTA, the binding signal was found to be 0.202 E-score. Regarding GGCGGCAC, the binding signal is -0.156 E-score.

The sequence TATCTACA had a binding signal of 0.348 E-score. Take CCGGCGGC: the binding signal is -0.371 E-score. Take CATCACCG: the binding signal was -0.233 E-score. GGTTTTTA: the binding signal was found to be 0.294 E-score. Take GTGGCGTA: the binding signal was -0.00523 E-score. Regarding ACTATGGA, the binding signal was -0.00972 E-score. As for CAACAGGG, the binding signal is -0.0798 E-score. As to GAGCCGGA, the binding signal is -0.366 E-score.

Turning to ACAAGCGT, the binding signal is -0.0296 E-score. TCGCGCAA returned a binding signal of 0.168 E-score. AGCCTATC: the binding signal is 0.0553 E-score. Under GACTAGCC stands -0.0957 E-score.

In the case of CATGGGGA, the binding signal was -0.184 E-score.

On to GCGCAGCA, for which the binding signal was -0.293 E-score.

On to CGCTTAAG, for which the binding signal is -0.147 E-score. For AGTCAATA, the binding signal stood at 0.322 E-score. Consider GTGCCCCA, for which the binding signal was -0.172 E-score. Next, GGCTTGAA: -0.22 E-score. On to GGCGAGCC, for which the binding signal is -0.411 E-score. Consider ATAAACAT, for which the binding signal was determined as 0.203 E-score. For ACTTTAGA, the binding signal is 0.00104 E-score. ATAGAATG returned a binding signal of 0.181 E-score. In the case of AGAGCAGC, the binding signal is -0.246 E-score. As to CCGTGTCC, the binding signal was -0.312 E-score.

ACCAAAAA registered a binding signal of 0.211 E-score. Turning to ACCTAATC, the binding signal amounted to 0.204 E-score. Next, ATACATTG: 0.317 E-score; ATGTGTTC: 0.0223 E-score. In turn, AGAATCCT had a binding signal of 0.0705 E-score. Next, GCCACGAA: -0.185 E-score. Next, CAAGACAG: -0.115 E-score. Turning to CGGTTGAA, the binding signal is -0.0837 E-score.

Take AAACAGGA: the binding signal stood at 0.00183 E-score. As to CCTCTGGC, the binding signal is -0.279 E-score. Turning to CGTAACAG, the binding signal worked out at 0.0596 E-score. GGTAAGCA came in with a binding signal of 0.00929 E-score. On to ACTCGAGT, for which the binding signal is -0.00899 E-score.

As for TGCGCAAA, the binding signal was -0.0078 E-score.

With TCTTATCA, the binding signal was determined as 0.125 E-score.

The sequence AGGTTACT had a binding signal of 0.0828 E-score. As to AAGCACGG, the binding signal is -0.125 E-score.

CAGACATA registered a binding signal of 0.133 E-score.

In the case of AAAGAGAG, the binding signal is -0.138 E-score. CTTCTATA came in with a binding signal of 0.233 E-score. Next, TAACGAAA: 0.32 E-score; GGCCTGTA: -0.0873 E-score. With CTTACCCA, the binding signal was -0.0105 E-score.

Take AGCTCTGG: the binding signal was -0.175 E-score. Consider CGGCCCTC, for which the binding signal is -0.441 E-score. As for ATGGGGCC, the binding signal is -0.279 E-score. As to AGTTGACA, the binding signal came out at 0.182 E-score. Sequence GCGCTATA displayed a binding signal of 0.216 E-score. In the case of GTTGAAAC, the binding signal is 0.0651 E-score. Turning to TGAGTCCA, the binding signal is -0.185 E-score.

With AGAGCGCC, the binding signal is -0.254 E-score. In turn, ATTGGCAC returned a binding signal of 0.122 E-score. TATACTGA showed a binding signal of 0.284 E-score.

Regarding ACGTGAGA, the binding signal was -0.0203 E-score.

ATGTTGGC yielded a binding signal of 0.0169 E-score. For ATACTTGA, the binding signal is 0.0977 E-score. In the case of AAACGACG, the binding signal is -0.0634 E-score.

As to AAACCCGC, the binding signal was -0.243 E-score. CTCTACGA returned a binding signal of 0.0532 E-score. CGTGTCGC registered a binding signal of 0.00557 E-score. Turning to CAGTATCA, the binding signal is 0.0946 E-score. As to GCATGCCA, the binding signal was -0.231 E-score.

As to CAATAAAC, the binding signal stood at 0.0772 E-score.

Regarding GTGACTTA, the binding signal amounted to 0.0519 E-score. Under AATCAGGC stands 0.101 E-score. In the case of CAATGGTC, the binding signal was -0.0595 E-score.

Take GGACTTCA: the binding signal is -0.0795 E-score. Take TGAATGAA: the binding signal is -0.0392 E-score. Sequence CATAGTAG had a binding signal of 0.0836 E-score. With ACATCCCT, the binding signal was -0.108 E-score.

ACCGTAAG displayed a binding signal of 0.0116 E-score.

Consider GGCGATAC, for which the binding signal was -0.174 E-score. Next, ATGAAGAG: -0.22 E-score; AAGGGGTC: -0.333 E-score. In the case of ATCCCGAC, the binding signal is -0.197 E-score. CTAGGGGA: the binding signal is -0.363 E-score. As for GATGGCTA, the binding signal was -0.00939 E-score.

Turning to GCCCCTCA, the binding signal is -0.171 E-score. On to AGGAATAG, for which the binding signal was -0.0854 E-score. Take CGAAACCG: the binding signal is -0.151 E-score. Under AAGTAAGT stands 0.282 E-score. Turning to GTGGACGA, the binding signal was -0.14 E-score. AACCGGAT returned a binding signal of 0.00817 E-score.

As to AAGGACTG, the binding signal was -0.0394 E-score. In the case of ATCCGGTG, the binding signal stood at 0.0336 E-score. With GTGTCCGA, the binding signal was -0.116 E-score. For the sequence ACGATCGT, the binding signal was -0.142 E-score.

ACCCTATC displayed a binding signal of 0.169 E-score.

Turning to GACTCATC, the binding signal amounted to 0.0637 E-score. The sequence CATTACGC returned a binding signal of 0.0594 E-score. CGTGAGCA: the binding signal was -0.0392 E-score. Next, CGTAGGAA: 0.116 E-score; ACTGACGA: 0.026 E-score; AGAGAACA: 0.0695 E-score. GTTCGTTA had a binding signal of 0.162 E-score.

For the sequence CGCATGCC, the binding signal is -0.0802 E-score. Under CTCTCAGA stands 0.0161 E-score; under ACAACAAG, 0.0195 E-score; under TAAAGCGA, -0.189 E-score. CGGCTACA: the binding signal is -0.112 E-score. Consider CCAGCTAC, for which the binding signal came to 0.0325 E-score. Turning to CATCTACA, the binding signal amounted to 0.177 E-score.

Consider GTTTCACA, for which the binding signal was -0.13 E-score. For ATGTGCTA, the binding signal was found to be 0.222 E-score. As to CGGAACAG, the binding signal is -0.176 E-score.

AGATAATC had a binding signal of 0.18 E-score. AACATCGT had a binding signal of 0.115 E-score. As to CTAACAGC, the binding signal is -0.153 E-score.

With GCTAAATA, the binding signal turned out to be 0.271 E-score. With GGCTAGAA, the binding signal was -0.0986 E-score.

Consider CGTCCTCA, for which the binding signal was -0.206 E-score. Under ACTAAGAT stands 0.25 E-score. As to GCCATAAA, the binding signal is -0.0698 E-score. Under GGACATTA stands -0.0494 E-score. GTCAGATA: the binding signal was determined as 0.124 E-score.

As for GAATGTAC, the binding signal was 0.303 E-score. As to CGATTGGC, the binding signal is -0.14 E-score. The sequence ATGCATAC came in with a binding signal of 0.165 E-score. Next, ATGCTGAG: -0.243 E-score. In turn, TCTTAGCA registered a binding signal of 0.0484 E-score. Next, TATGACCA: 0.0643 E-score.

As for CCTACGAC, the binding signal was -0.0435 E-score. In the case of GCCGTGAC, the binding signal was -0.176 E-score. Regarding GATCATTA, the binding signal came out at 0.355 E-score. On to ATGAAAGC, for which the binding signal was -0.0433 E-score. In turn, CAGTTGCA came in with a binding signal of 0.008 E-score. Consider AATGTGCA, for which the binding signal was 0.152 E-score. GGTCCGAA: the binding signal was -0.0301 E-score. Under GGTCATGA stands 0.0617 E-score. For the sequence ACTCCGCC, the binding signal was -0.291 E-score. On to CGAGGTGA, for which the binding signal is -0.1 E-score. For CGATACTC, the binding signal is -0.195 E-score. Under AAACCTTT stands 0.052 E-score. CCTACTTA: the binding signal was 0.228 E-score. Under GCAAAAAA stands 0.0117 E-score; under CCGCCATA, -0.0715 E-score; under ACGGCTCC, -0.24 E-score.

With CAGACCGG, the binding signal is -0.107 E-score. For CCTTGTTC, the binding signal is -0.113 E-score. On to GACTTCAC, for which the binding signal was -0.0883 E-score. Next, ATTATAGG: 0.285 E-score. Next, GTGCATGA: -0.127 E-score; ATCTTACC: 0.246 E-score; AAAGGTAG: 0.254 E-score. In the case of CAGTCGCC, the binding signal was -0.316 E-score.
